Measured values from PubChem BioAssay AID1347055 (National Center for Advancing Translational Sciences (NCATS), 2019).
Where “and” joins values, the source holds several entries; their conditions need not be identical. Equal entries are not always repeated. About 120 (0.22%) of roughly 54,000 compounds were called active. Inconclusive means that the source gave no clear call. Such entries were picked first, then a sample of the others. Calls come from the whole dose curve; as a rule, active = well fitted inhibition curve with a large enough effect; inconclusive = small, poorly fitted or top-dose-only effect, or effect the other way; inactive = flat fitted curve, though single readings scatter. Potencies beside an inconclusive call are fits to weak or partial responses and may not hold up.

Molecular target: Fumarate hydratase, mitochondrial (Homo sapiens) (UniProt P07954)
Chain of UniProt P07954 (P07954 whole entry, looked up): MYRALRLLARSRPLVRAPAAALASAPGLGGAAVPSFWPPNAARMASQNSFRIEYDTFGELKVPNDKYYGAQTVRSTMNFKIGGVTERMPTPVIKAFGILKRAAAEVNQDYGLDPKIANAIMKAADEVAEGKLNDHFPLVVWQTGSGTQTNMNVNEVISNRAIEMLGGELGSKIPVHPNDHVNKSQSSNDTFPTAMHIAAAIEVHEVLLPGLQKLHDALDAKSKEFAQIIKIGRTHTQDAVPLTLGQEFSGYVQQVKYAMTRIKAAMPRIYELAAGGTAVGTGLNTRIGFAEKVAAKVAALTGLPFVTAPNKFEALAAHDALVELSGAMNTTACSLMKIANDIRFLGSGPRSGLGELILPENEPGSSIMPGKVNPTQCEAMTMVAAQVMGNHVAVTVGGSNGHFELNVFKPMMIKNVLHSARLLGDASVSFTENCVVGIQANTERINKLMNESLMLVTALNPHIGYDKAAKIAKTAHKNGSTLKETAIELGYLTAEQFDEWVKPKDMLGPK
Assay: Identification of activators of human fumarate hydratase by quantitative high-throughput screening; note: the screen sought activators but most active calls are inhibition curves; nearly all actives have a fitted effect of over 45% in size
Conditions: FH coupled MDH/diaphorase resazurin fluorescence, 15 min; series mostly up to 79.9 µM
Potency is the fitted concentration of half-maximal effect; tags give direction and shape of the fitted curve.

| Structure (SMILES) | Potency |
| --- | --- |
| COc1ccc(Br)cc1S(=O)(=O)NC(=O)/C=C/c1ccccc1Cc1ccc2ccccc2c1 | active: 20 µM |
| COC(=O)c1c(NC(=O)c2ccc(S(=O)(=O)N3CCCCC3)cc2)sc2c1CCN(C)C2 | inconclusive: 31.6 µM [inhibitor, single point] |
| Cc1ccc(-n2c(SCc3nc(-c4ccccc4C)no3)nnc2-c2ccncc2)cc1C | inconclusive: 0.158 µM [inhibitor, full curve] |
| COC(=O)CNC(c1ccccc1)c1cc(Br)ccc1NC(=O)c1cc(OC)c(OC)c(OC)c1 (stereo not drawn) | inconclusive: 39.8 µM [inhibitor, partial curve, poor fit] |
| CCOC(=O)c1ccc(OCC2c3cc(OC)c(OC)cc3CCN2C(=O)Cc2ccc(OC)c(OC)c2)cc1 (stereo not drawn) | inconclusive: 31.6 µM [inhibitor, partial curve, poor fit] |
| CCn1cc2nc(SCc3cccc(C(F)(F)F)c3)n(CCc3ccccc3)c(=O)c2n1 | active: 31.6 µM |
| Cc1cc(-c2nc3ncccc3o2)ccc1NC(=O)COc1ccc(C(C)(C)C)cc1 | inactive |
| CCOc1ccc(Nc2c(S(=O)(=O)c3ccc(C)cc3)cnc3ccccc23)cc1 | inconclusive: 35.5 µM [inhibitor, partial curve, poor fit] |
| COCCCNC(=O)c1ccc(Cn2c(=O)c3ccccc3n(Cc3ccc(C(C)C)cc3)c2=O)cc1 | inconclusive: 50.1 µM [inhibitor, partial curve, poor fit] |
| CCc1ccc(-n2c(=O)c3cccnc3n2CC(=O)N(CC)c2cccc(C)c2)cc1 | inconclusive: 39.8 µM [inhibitor, partial curve] |
| COc1ccc(N2CCN(C(CNS(=O)(=O)c3c(C)cc(C)cc3C)c3ccco3)CC2)cc1 (stereo not drawn) | inconclusive: 35.5 µM [inhibitor, partial curve, poor fit] |
| Cc1ccn2c(Nc3ccc4c(c3)OCO4)c(-c3ccco3)nc2c1 | inconclusive: 17.8 µM [inhibitor, partial curve] |
| COC(=O)c1cc(NC(=O)Cn2ncc3c2-c2ccccc2OC3)cc(C(=O)OC)c1 | inconclusive: 31.6 µM [inhibitor, partial curve, poor fit] |
| CCOc1ccc(N2CC(c3nc4ccccc4n3CCC3CCCCC3)CC2=O)cc1 (stereo not drawn) | inconclusive: 22.4 µM [inhibitor, partial curve, poor fit] |
| CCOCCCNC(=O)c1c(NC(=O)c2cc(=O)c3cc(C)c(C)cc3o2)sc2c1CCC2 | inconclusive: 50.1 µM [inhibitor, partial curve, poor fit] |
| CC(C)(C)C(=O)OCc1cc(=O)n2nc(C3CCCCC3)sc2n1 | inactive |
| Cc1cc(C)c(C#N)c(SCC(=O)Nc2ccccc2C#N)n1 | inactive |
| Nc1c(C(=O)Nc2ccc(Br)cc2)sc2nc(-c3ccncc3)ccc12 | inactive |
| CSc1ccc(CCNC(=O)c2cc3c(-c4ccccc4F)nn(C)c3s2)cc1 | inconclusive: 35.5 µM [inhibitor, partial curve, poor fit] |
| Cc1cc(C)cc(Nc2cc(C(=O)NCc3ccccc3)c3ccccc3n2)c1 | inconclusive: 31.6 µM [inhibitor, single point] |

| Structure (SMILES) | Potency |
| --- | --- |
| CCOC(=O)C1CCN(C(c2ccc(F)cc2)c2sc3nc(-c4ccco4)nn3c2O)CC1 (stereo not drawn) | inconclusive: 35.5 µM [inhibitor, single point] |
| CCN(CC)S(=O)(=O)c1ccc(C(=O)NCCSc2c(-c3ccc(OC)cc3)[nH]c3ccccc23)cc1 | inactive |
| O=C(Nc1ccc(-c2ccc(Cl)c(Cl)c2)cc1)C1=C(O)c2ccccc2S(=O)(=O)N1 | inconclusive: 28.2 µM [inhibitor, partial curve, poor fit] |
| CCOC(=O)c1ccccc1NC(=O)N1CCOc2ccc(Cl)cc21 | inconclusive: 50.1 µM [inhibitor, single point] |
| Cc1cccn2c(=O)c3cc(C(=O)N(Cc4ccccc4)C(C)C)sc3nc12 | inconclusive: 28.2 µM [inhibitor, partial curve] |
| CC(CNC(=O)CCS(=O)(=O)c1ccc2c(c1)oc(=O)n2C)c1ccccc1 (stereo not drawn) | inconclusive: 28.2 µM [inhibitor, partial curve, poor fit] |
| Cc1ccc2c(c1)-c1c(c(C(=O)N3CCN(c4cc(Cl)ccc4C)CC3)nn1C)CS2 | inconclusive: 50.1 µM [inhibitor, single point] |
| Cc1ccc(Cc2nc3ccccc3nc2SCC(=O)N2CCCCC2C)cc1 (stereo not drawn) | inactive |
| Oc1ccc(NCc2ccc(OCc3ccccc3Cl)cc2)cc1 | inconclusive: 28.2 µM [inhibitor, partial curve] |
| N#C/C(=C\c1c(Oc2ccc(Br)cc2)nc2ccccn2c1=O)c1nc2ccccc2s1 | inconclusive: 14.1 µM [inhibitor, partial curve, poor fit] |
| O=C(NC1CCCCC1)c1ccc(CSc2nc3cccnc3n2Cc2ccccc2F)cc1 | inconclusive: 25.1 µM [inhibitor, single point] |
| O=C(NCCc1csc2nc(-c3ccc(F)cc3)nn12)c1ccco1 | inactive |
| Cc1ccc(-c2cc(C(=O)N3CCN(c4ccccc4)CC3)c3ccccc3n2)cc1C | inactive |
| CCOc1ccccc1CNS(=O)(=O)c1csc(C(N)=O)c1 | inactive |
| CCOC(=O)c1ccc(N2C(=O)c3n[nH]c(-c4ccco4)c3C2c2ccc(F)cc2)cc1 (stereo not drawn) | inconclusive: 28.2 µM [inhibitor, single point] |
| CC(C)OCc1cc(CN2CCN(c3ccccc3)CC2)c(O)c2ncccc12 | inconclusive: 4.47 µM [activator, full curve, poor fit] |
| COc1ccc(OC)c(NC(=O)CN2CCCN(Cc3cc(C)ccc3C)S2(=O)=O)c1 | inconclusive: 31.6 µM [inhibitor, partial curve] |
| CC1(C)CCC2(C(=O)O)C(O)CC3(C)C(=CCC4C5(C)CCC(OC6OC(CO)C(O)C(O)C6OC6OC(CO)C(O)C(O)C6OC6OCC(O)(CO)C6O)C(C)(C)C5CCC43C)C2C1 (stereo not drawn) | inactive |
| COC(=O)C1=C(c2ccccc2)c2ccccc2S(=O)(=O)N1CC(=O)Nc1ccc(OC)cc1OC | inconclusive: 28.2 µM [inhibitor, single point] |
| CCOc1ccc(NC(=O)CN2C(C(=O)OC)=C(c3ccccc3)c3cc(Cl)ccc3S2(=O)=O)cc1 | inconclusive: 28.2 µM [inhibitor, partial curve, poor fit] |

| Structure (SMILES) | Potency |
| --- | --- |
| CCOc1ccc(Nc2nc(C)c(NC(=O)c3cccc(OC)c3)c(Nc3ccc(OCC)cc3)n2)cc1 | inconclusive: 31.6 µM [inhibitor, single point] |
| COC(=O)[C@H](O)[C@H]1C(C)(C)[C@H](OC(C)=O)[C@@]2(O)C(=O)[C@]1(C)C1CC[C@]3(C)C(CC(=O)O[C@H]3c3ccoc3)[C@]13O[C@@H]32 (stereo partly drawn) | inconclusive: 5.21 µM [activator, single point] |
| O=C(Cn1ncc2c3ccccc3n(Cc3ccccc3F)c2c1=O)N1CCCCC1 | inconclusive: 22.4 µM [inhibitor, partial curve, poor fit] |
| CCOc1ccc(CCNC(=O)c2[nH]c3cc(OC)ccc3c2Sc2ccccc2)cc1OCC | inconclusive: 22.4 µM [inhibitor, partial curve, poor fit] |
| COc1cc2c(NC3CCN(CC4CCCCC4)CC3)nc(N3CCCN(C(C)C)CC3)nc2cc1OCCCN1CCCCC1 | inactive |
| COc1ccc(S(=O)(=O)N(CC(=O)Nc2cccc(C)c2)c2ccc(C)cc2)cc1OC | inconclusive: 31.6 µM [inhibitor, partial curve, poor fit] |
| COC(=O)c1ccc(NC(=O)CSc2cn(CC(=O)N3CCCCCC3)c3ccccc23)cc1 | inconclusive: 20 µM [inhibitor, partial curve] |
| C[C@H](Cc1ccc(O)c(O)c1)[C@@H](C)Cc1ccc(O)c(O)c1 | inconclusive: 25.1 µM [inhibitor, partial curve, poor fit] and inconclusive: 30.6 µM [inhibitor, single point] and inconclusive: 25.1 µM [inhibitor, partial curve] |
| NCCc1ccc(O)c(O)c1 | inconclusive: 12.3 µM [inhibitor, partial curve] |
| COc1ccc(-c2noc(CN3CCN(c4cccc(Cl)c4)CC3)n2)cc1 | inconclusive: 35.5 µM [inhibitor, partial curve, poor fit] |
| O=C(CSc1nc2ccccc2nc1Cc1ccccc1)N1CCCCC1 | inconclusive: 28.2 µM [inhibitor, single point] |
| COc1cc(-c2nc3ncccn3c2Nc2ccc(C)cc2C)ccc1O | inconclusive: 35.5 µM [inhibitor, partial curve, poor fit] |
| COC(=O)CS(=O)(=O)c1nc2ccccc2nc1N1CCCCC1 | inactive |
| Cc1nn(-c2ccc(F)cc2)c(-n2cccc2)c1C(=O)NCCCN1CCN(c2ccccc2F)CC1 | inactive |
| NC(N)=NC(N)=Nc1ccccc1 | inconclusive: 7.08 µM [inhibitor, single point] |
| CC(=O)c1ccc(NC(=O)CC2Nc3cccc4cccc(c34)NC2=O)cc1 (stereo not drawn) | inconclusive: 28.2 µM [inhibitor, single point] |
| COc1cccc(C(=O)Nc2ccccc2C(=O)OCc2cc(=O)n3c(C)csc3n2)c1 | inactive |
| COc1cc(NC(=O)CSC2=Nc3ccccc3N=C(c3ccc(F)cc3)C2)cc(OC)c1 | inconclusive: 39.8 µM [inhibitor, partial curve, poor fit] |
